Results on four molecules are retold here after patent US20080044423A1.

What all share (experiment): cell-based or functional assay
Assay [1] deals with human IL-17A, untagged, E. coli derived (in house or Peprotech) (human) (UniProt Q16552).
In assay [2] the target is cynomolgus IL-17A (cynomolgus).
Assay [3] concerns the target human IL-17A derived from the HEK-EBNA expression system (human) (UniProt Q16552).

B1: Antibody 2 IgG1, non-germlined form (antibody, V domains shown)
VH: [not shown - about 100 residues]DLIWGVAGSWGQGTLVTVSS
VL: NFMLTQPHSVSESPGKTVTISCTRSSGSLANYYVQWYQQRPGSSPTIVIFANNQRPSGVPDRFSGSIDSSSNSASLTISGLKTEDEADYYCQSYDPHSVVFGGGTKLTVL
B1: in assay [1], the cartilage explant IL-6 (IL-17A 10 ng/ml + TNF 1 ng/ml), % inhibition at 50 nM antibody came out at 91.6%; the cartilage explant IL-6 (pg/ml), mean, IL-17A 10 ng/ml + TNF 1 ng/ml + antibody (55.00 pg/ml without antibody) amounted to 4.63 pg/mL; the chondrocyte IL-6 release, geometric mean IC50 at 0.2 nM IL-17A was 0.85 nM; the chondrocyte IL-6 release, geometric mean IC50 at 2 nM IL-17A was 5.76 nM. Also, in assay [1], the chondrocyte IL-8 release, geometric mean IC50 at 0.2 nM IL-17A is 0.74 nM; the chondrocyte IL-8 release, geometric mean IC50 at 2 nM IL-17A was 3.81 nM; the chondrocyte MMP13 release, geometric mean IC50 at 0.2 nM IL-17A worked out at 1.55 nM; the chondrocyte MMP13 release, geometric mean IC50 at 2 nM IL-17A worked out at 11.5 nM. In assay [1], this molecule had a chondrocyte PGE2 release, geometric mean IC50 at 2 nM IL-17A of 1.94 nM.

B2: Antibody 15 IgG1 (antibody, V domains shown)
VH: [not shown - about 100 residues]DLIWGVAGSWGQGTLVTVSS
VL: NFMLTQPHSVSESPGKTVTISCTRSSGSLANYYVQWYQQRPGSAPTIVIFANNQRPSGVPDRFSGSIDSSSNSASLTISRLKTEDEADYYCQSYSPTSVVFGGGTKLTVL
Molecule B2 had a Fold difference in cross-reactivity (IgG) in assay [2] of 19 fold. Further, the HT1080 IL-6 release, IgG IC50 was found to be 30.9 nM in assay [2] and 1.7 nM in assay [3].

B3: Antibody 11 IgG1 (antibody, V domains shown)
VH: [not shown - about 100 residues]DLIWGVAGSWGQGTMVTVSS
VL: NFMLTQPHSVSESPGKTVTISCTRSSGSLANYYVQWYQQRPGSAPTIVIFANNQRPSGVPDRFSGSIDSSSNSASLTISRLKTEDEADYYCQSYSPHSVVFGGGTKLTVL
Take B3: the HT1080 IL-6 release, IgG IC50 in assay [2] came to 25 nM; in assay [3], 2.2 nM.

B4: Antibody 14 IgG1 (antibody, V domains shown)
VH: [not shown - about 100 residues]DLIWGVAGSWGQGTLVTVSS
VL: NFMLTQPHSVSESPGKTVTISCTRSSGSLANYYVQWYQQRPGSAPTIVIFANNQRPSGVPDRFSGSIDSSSNSASLTISRLKTEDEADYYCQSYDPTNQVFGGGTKLTVL
In assay [2], B4 showed a Fold difference in cross-reactivity (IgG) of 16 fold and an HT1080 IL-6 release, IgG IC50 of 29 nM. Besides, the HT1080 IL-6 release, IgG IC50 in assay [3] was 1.8 nM.
